# ChEMBL document CHEMBL4888484, “Replenishing the malaria drug discovery pipeline: Screening and hit evaluation of the MMV Hit Generation Library 1 (HGL1) against asexual blood stage Plasmodium falciparum ,using a nano luciferase reporter read-out” (2022)
# About 540 (0.36%) of roughly 150,000 compounds showed an effect of 50% or more. The list shows a part of the results.
# System: Plasmodium falciparum
# Assay: Primary screen in NF54 nanoGlo assay, in single point, at 2uM, 72h; a lower Z score goes with more inhibition
# Assay type: functional, Erythrocyte
# Conditions: timepoint 72 hour
SMILES,% Inhibition,Z score
N#Cc1ccc(NC(=O)CN2c3ccc(Br)cc3CS2(=O)=O)cc1,-11%,1.52
CC1CCCC(C)N1C(=O)CN(CCO)C1CCCCC1 (configuration not stated),-4%,0.39
CC(C1Cc2ccccc2O1)N(C)Cc1cccn(C(F)F)c1=O (configuration not stated),1%,-0.11
CC(C)(C)c1cc(=O)n(Cc2c(F)cccc2F)cn1,5%,-0.88
NS(=O)(=O)c1ccc(F)c(C(F)(F)F)c1,-5%,0.53
COc1ccc(C(=O)N[C@H](C(=O)NCC(C)C)C2CCN(C(C)=O)CC2)cc1,0%,0.02
COc1cccc(-c2ccc(N3CCCN(C(=O)CN(Cc4ccccc4)C(=O)C(C)C)CC3)nn2)c1,-3%,0.45
Cc1cc(C(=O)N2Cc3cnc(N4CCOCC4)nc3C2)c(C)o1,-12%,2.23
O=C(NC1CCCCC1)c1ccc(NC(=O)c2nc[nH]n2)cc1,6%,-1.04
O=C(C[C@H](c1ccccc1F)c1c[nH]c2ccc(Cl)cc12)NCc1ccccc1,1%,-0.11
Cc1ccncc1C(=O)N1CCC(CCc2noc(N(C)C)n2)CC1,3%,-0.53
Cn1cccc1C(=O)N1CCc2nn(Cc3ccccc3)c(=O)n2CC1,-10%,1.11
COc1ccc(-c2noc(N(C)CC(=O)Nc3cccc(Cl)c3)n2)cc1,-3%,0.4
CC1CC(NCCOc2ccc(Br)cc2)CN1C1CC1 (configuration not stated),-7%,0.85
c1cnc2cc(OCCOCCOCCOCCOc3ccc4cccnc4c3)ccc2c1,9%,-1.39
CCc1nn(-c2ccc(OC)cc2)c(Oc2ccccc2C)c1CCC(=O)Nc1ccc(F)cc1,16%,-2.76
CC(C)(C)NC(=O)N(CC(=O)Nc1nc(-c2ccccc2)cn1-c1ccc(F)cc1)Cc1ccccc1,-1%,0.13
CCc1c(C)sc2ncnc(-c3ccc(S(C)(=O)=O)cc3)c12,14%,-1.77
CCc1nnc(CNC(=O)c2cnc(C)cn2)s1,-4%,0.8
CCC(C)N(C(=O)Nc1ccc(F)cc1)C(C)CC (configuration not stated),4%,-0.57
C=CCNC(=O)c1cccc(Br)c1,1%,-0.12
COc1cc2c(cc1OC)C(c1cccc(C(F)(F)F)c1)N(C(=O)C(C)Oc1ccccc1)CC2 (configuration not stated),-6%,0.78

SMILES,% Inhibition,Z score
CCn1c(CCc2ccc(NC(=O)c3n[nH]c4c3CCc3cc(OC)ccc3-4)cc2)nc2ccccc21,-10%,0.96
O=C(CN1CCCC1=O)N[C@@H](C1CCCC1)C(F)(F)F,-4%,0.42
O=C(C(c1ccccc1)c1ccccc1)N1CCc2cc(-c3ccncc3)ccc21,-4%,0.82
Cc1cc(CNc2cc(C3CC3)ncn2)n(C)n1,-3%,0.34
C[C@H](Cc1cn(C)nn1)Nc1ccc(C(F)(F)F)cn1,-11%,1.2
CC(C)C1(NC(=O)Cc2c[nH]c3cc(F)ccc23)CC1,0%,-0.02
CN(C[C@H]1CCOC1)C(=O)c1ccco1,2%,-0.28
COCC1(F)CCN(Cc2c(-c3cc(C)ccc3C)nc3cc(C)ccn23)CC1,-4%,0.56
CN(Cc1ccsc1)C(=O)CNCCn1cccn1,-6%,1.06
Cc1ccc(C(=O)N2CCc3onc(-c4cccc5ccccc45)c3C2)cc1,-5%,0.75
COc1cc(CC(=O)NCC2(N(C)CCO)CCCCC2)ccc1C,-14%,1.44
CC(C)N(C)c1ccc(NC(=O)C2=NN(C)C(=O)CC2)cc1F,30%,-4.05
O=C(Cc1noc2ccccc12)N1CCCO1,-6%,0.67
O=C(NC1CC2CC2C1)NC1CC2CCC1O2 (configuration not stated),1%,-0.11
COc1ccc(NS(=O)(=O)c2ccc(-c3cnc(C4CC4)o3)s2)cc1,4%,-0.46
CCOC(=O)N1CCN([C@H]2CCc3ccc(F)cc32)CC1,-11%,1.16
c1ccc(-c2ncn(Cc3cn[nH]c3-c3cccs3)c2[C@H]2CCOC2)cc1,-17%,1.7
CC(C)C[C@H]1COCCN1CC(N)=O,-5%,0.75
Cc1ccc2nc(-c3ccco3)nc(N3CCN(C(=O)Nc4ccc(C(C)C)cc4)CC3)c2c1,-7%,1.01
Cc1cccc(Cl)c1CN1CCO[C@H](C2CC2)C1,-5%,0.43
CN(CC1=CCCOC1)C(=O)NC[C@H]1CCCN(c2nccn3cnnc23)C1,-1%,0.19
c1cc(C[C@@H]2CC[C@H](CN3CCOCC3)O2)cc(N2CCNCC2)c1,-2%,0.18

SMILES,% Inhibition,Z score
O=C1CCN(C(=O)c2ccc(S(=O)(=O)c3ccccc3)cc2)C2CCCCC12 (configuration not stated),21%,-2.33
COc1cccc(CC2(C(=O)N3C[C@H](O)C[C@@H]3c3nc(C)no3)CCCCC2)c1,-5%,0.87
COc1ccccc1-c1cnc(Cn2ccnn2)o1,-3%,0.31
CN(Cc1cnc2ccccc2c1)C[C@H]1CCCCN1C,1%,-0.14
CN1CCC(NC(=O)CC2OCCCO2)C1c1ccccc1 (configuration not stated),-1%,0.22
CCC(NC(=O)NCC1CN2CCCC2CO1)c1c(C)nn(C)c1C (configuration not stated),2%,-0.18
COCCCOc1ccc(C(=O)N(CCN(C)C)CC(C)C)cn1,-6%,1.06
CCc1ccc(Nc2ncnc(N3CCCC3)c2C#N)cc1,-16%,1.57
FC(F)(F)c1ccc([C@@H]2CNCCN2)cc1,0%,-0.02
O=C(CC[C@@H]1N=C(O)N(Cc2ccccc2)C1=O)Nc1cccc(Cl)c1,1%,-0.08
Cc1ccc(F)cc1NC(=O)NC1CCOC2(CCOC2)C1 (configuration not stated),1%,-0.14
N#Cc1cccnc1OC1CCC2(CC1)OCCO2,2%,-0.34
COc1ccc(OCC(=O)N2CCCN(c3cc(=O)n(C(C)C)c(=O)n3C(C)C)CC2)cc1,-11%,1.87
CCOc1ccc(CN(C)[C@@H](CC)c2ccccn2)cn1,11%,-1.71
Brc1cnn(CCc2ccc(N[C@H]3CCCn4ccnc43)cc2)c1,-1%,0.19
CCCN(CC(F)F)C(=O)c1ccn(C(F)F)n1,-7%,0.7
CCOC(=O)N1CCN(C(=O)c2cccc(-c3cccc(C#N)n3)c2)CC1,0%,0.03
CC(C)N1C(=O)C2C3CC4C(OC1C42)C3O (configuration not stated),-3%,0.23
COc1ccc(-c2csc(CCn3nc(C)c4c(C(F)(F)F)cc(-c5cccs5)nc43)n2)cc1,-1%,0.13
Cn1nccc1CNCc1ccc(Br)c2cccnc12,10%,-1.28
CC(C)(C)C(=O)NCC(=O)Nc1cccn(CC(F)(F)F)c1=O,-3%,0.48
CC1OCCC1S(=O)(=O)NCCN1CC2CCC(C1)O2 (configuration not stated),-2%,0.27

SMILES,% Inhibition,Z score
CC(=Cc1ccccc1)CNC(C)(C)CCN1CCN(C)CC1,-3%,0.58
COCC1(C(=O)N2CC[C@H]3[C@H](CCC(=O)N3CCc3cccs3)C2)CCC1,-2%,0.38
Cc1cnc(C(=O)Nc2ccc3c(c2)NC(=O)[C@H](C)O3)cn1,-6%,1.05
Cc1cn(CC(=O)c2ccc(NC(=O)CC(C)C)cc2)cc(Br)c1=O,-23%,2.31
O=C(c1cccs1)N1CCN(S(=O)(=O)c2cccc3nonc23)CC1,-15%,1.81
CCNC(=O)NCCOC(=O)c1ccccc1COC,-11%,1.08
C#CCOC[C@@H](O)CN(Cc1ccco1)Cc1c(-c2ccccc2)nn(C)c1Oc1ccc(C)cc1,13%,-1.91
Cc1ccc(-n2nc(C(=O)Nc3cc(Cl)ccc3C)cc2-c2cccnc2)cc1,-4%,0.48
Cc1c(NC(=O)[C@@H]2CCCO2)cccc1C(=O)N1CCc2sccc2C1,9%,-1.17
CC(C)CN([C@H]1CCCc2cccnc21)S(=O)(=O)c1cnnn1C,-3%,0.3
CCc1cnc(C)nc1-c1ccc(C(=O)N(CC)[C@H]2COC[C@@H]2O)cc1,0%,0.01
COc1ccc(N2CCN(C(=O)c3ccc4ccccc4n3)CC2)cc1,-1%,0.15
Cc1nn(C)c(C)c1C(=O)C(=O)N(CCc1cccc(F)c1)C1CC1,-6%,0.79
COCC(=O)N[C@H]1[C@H](c2ccccc2)N(CC2CC2)CC[C@@]1(C)O,-2%,0.23
O=C(CCc1ccc(O)cc1)N1C[C@H]2CC[C@@H](C1)N(CC1CCC1)C2=O,4%,-0.59
COc1cc(C(=O)OCC(=O)NC2CCCCCC2)ccn1,-14%,1.9
C[C@@H](COc1ccccc1)NCCS(=O)(=O)N(C)C,-23%,2.34
COC(=O)[C@]1(NC(=O)c2cccn2C)CCCN(Cc2ccccc2)C1,-7%,1.02
Cn1ccnc1C(=O)NCc1cccc2[nH]ccc12,-19%,1.66
CCc1ncncc1C(=O)N1CCN(C2CCC2)C[C@H](C)C1,-4%,0.42
